# Results from the supplement of paper PMC6657886.
# MIC of clinical N. gonorrhoeae isolates (2015-2017) by agar dilution on GC agar with 1% IsoVitaleX (ranges not stated); higher = less susceptible. No active / inactive call per row; the paper counts benzylpenicillin above 1 and ceftriaxone above 0.125 mg/L as resistant (EUCAST). The method is stated for benzylpenicillin and ceftriaxone and assumed for the other drugs. '<=' is inferred from pile-ups at the end values. Isolates are numbered anew.
# Legend:
# Assay in all cases: Agar dilution on enriched GC agar; resistance determinants by microarray.
# benzylpenicillin = compound: CC1(C)S[C@@H]2[C@H](NC(=O)Cc3ccccc3)C(=O)N2[C@H]1C(=O)O [benzylpenicillin]
# azithromycin = compound: CC[C@H]1OC(=O)[C@H](C)[C@@H](O[C@H]2C[C@@](C)(OC)[C@@H](O)[C@H](C)O2)[C@H](C)[C@@H](O[C@@H]2O[C@H](C)C[C@H](N(C)C)[C@H]2O)[C@](C)(O)C[C@@H](C)CN(C)[C@H](C)[C@@H](O)[C@]1(C)O [azithromycin]
# tetracycline = compound: CN(C)[C@@H]1C(O)=C(C(N)=O)C(=O)[C@@]2(O)C(O)=C3C(=O)c4c(O)cccc4[C@@](C)(O)[C@H]3C[C@@H]12 [tetracycline]
# spectinomycin = compound: CN[C@@H]1[C@H](O)[C@H](NC)[C@H]2O[C@@]3(O)C(=O)C[C@@H](C)O[C@H]3O[C@@H]2[C@H]1O [spectinomycin]
# ceftriaxone = compound: CO/N=C(\C(=O)N[C@@H]1C(=O)N2C(C(=O)O)=C(CSc3nc(=O)c(O)nn3C)CS[C@H]12)c1csc(N)n1 [ceftriaxone]
Test System,MIC (benzylpenicillin) [mg/L],MIC (azithromycin) [mg/L],MIC (tetracycline) [mg/L],MIC (spectinomycin) [mg/L],MIC (ceftriaxone) [ng/mL]
"Neisseria gonorrhoeae isolate 492 (blaTEM plasmid: no, gyrA: wild type, mtrR promoter: -35delA, parC: Arg87, Glu91, penA: ins345Asp, ponA: Pro421, porB: Lys 120, Asn 121, rpsJ: wild type, tetM plasmid: no)",1,0.06,2,32,15
"Neisseria gonorrhoeae isolate 407 (blaTEM plasmid: no, gyrA: Phe91, Asn 95, mtrR promoter: -35delA, parC: wild type, penA: wild type, ponA: Pro421, porB: Asn120, Asp121, rpsJ: Met57, tetM plasmid: no)",1,0.25,1,16,30
"Neisseria gonorrhoeae isolate 394 (blaTEM plasmid: no, gyrA: Phe91, Gly95, mtrR promoter: wild type, parC: Arg87, Gly91, penA: ins345Asp, ponA: Pro421, porB: Asp120, Ala121, rpsJ: Met57, tetM plasmid: no)",0.25,0.015,0.5,32,8
"Neisseria gonorrhoeae isolate 308 (blaTEM plasmid: no, gyrA: wild type, mtrR promoter: -35delA, parC: wild type, penA: ins345Asp, ponA: Pro421, porB: wild type, rpsJ: Met57, tetM plasmid: no)",0.03,0.12,0.5,16,≤ 2
"Neisseria gonorrhoeae isolate 306 (blaTEM plasmid: no, gyrA: wild type, mtrR promoter: wild type, parC: wild type, penA: ins345Asp, ponA: wild type, porB: wild type, rpsJ: wild type, tetM plasmid: no)",0.06,0.03,0.25,32,≤ 2
"Neisseria gonorrhoeae isolate 34 (blaTEM plasmid: no, gyrA: Phe91, Asn 95, mtrR promoter: -35delA, parC: Arg87, Glu91, penA: ins345Asp, ponA: Pro421, porB: wild type, rpsJ: Met57, tetM plasmid: no)",1,0.12,0.5,32,4
"Neisseria gonorrhoeae isolate 434 (blaTEM plasmid: no, gyrA: Thr91, Gly95, mtrR promoter: wild type, parC: wild type, penA: wild type, ponA: wild type, porB: wild type, rpsJ: wild type, tetM plasmid: no)",0.25,0.25,0.12,32,4
"Neisseria gonorrhoeae isolate 216 (blaTEM plasmid: no, gyrA: Phe91, Asn95, mtrR promoter: -35delA, parC: Arg87, Glu91, penA: ins345Asp, ponA: Pro421, porB: Thr 120, Asn 121, rpsJ: Met57, tetM plasmid: no)",1,0.5,1,32,30
"Neisseria gonorrhoeae isolate 442 (blaTEM plasmid: no, gyrA: wild type, mtrR promoter: wild type, parC: wild type, penA: wild type, ponA: wild type, porB: wild type, rpsJ: wild type, tetM plasmid: no)",≤ 0.015,0.06,0.25,16,≤ 2
"Neisseria gonorrhoeae isolate 265 (blaTEM plasmid: no, gyrA: wild type, mtrR promoter: wild type, parC: wild type, penA: wild type, ponA: wild type, porB: wild type, rpsJ: wild type, tetM plasmid: no)",≤ 0.015,0.25,0.06,16,≤ 2
"Neisseria gonorrhoeae isolate 32 (blaTEM plasmid: no, gyrA: wild type, mtrR promoter: wild type, parC: wild type, penA: wild type, ponA: wild type, porB: wild type, rpsJ: wild type, tetM plasmid: no)",≤ 0.015,0.06,0.12,16,≤ 2
"Neisseria gonorrhoeae isolate 321 (blaTEM plasmid: no, gyrA: wild type, mtrR promoter: wild type, parC: wild type, penA: ins345Asp, ponA: wild type, porB: wild type, rpsJ: wild type, tetM plasmid: no)",0.06,0.12,0.12,16,≤ 2
"Neisseria gonorrhoeae isolate 212 (blaTEM plasmid: no, gyrA: Phe91, Asn 95, mtrR promoter: wild type, parC: Arg 87, Glu91, penA: ins345Asp, ponA: Pro421, porB: wild type, rpsJ: Met57, tetM plasmid: no)",≤ 0.015,0.06,0.5,16,≤ 2
"Neisseria gonorrhoeae isolate 143 (blaTEM plasmid: no, gyrA: Phe91, Asp95, mtrR promoter: wild type, parC: wild type, penA: ins345Asp, ponA: Pro421, porB: Asp120, Gly121, rpsJ: Met57, tetM plasmid: yes)",1,0.03,2,32,8
"Neisseria gonorrhoeae isolate 478 (blaTEM plasmid: no, gyrA: wild type, mtrR promoter: wild type, parC: wild type, penA: ins345Asp, ponA: wild type, porB: wild type, rpsJ: wild type, tetM plasmid: no)",0.06,0.06,0.25,16,≤ 2
"Neisseria gonorrhoeae isolate 362 (blaTEM plasmid: no, gyrA: Phe91, Asp95, mtrR promoter: -35delA, parC: wild type, penA: ins345Asp, ponA: Pro421, porB: Asp120, Gly121, rpsJ: Met57, tetM plasmid: no)",0.5,0.25,1,16,8
"Neisseria gonorrhoeae isolate 347 (blaTEM plasmid: no, gyrA: Phe91, Gly95, mtrR promoter: -35delA, parC: Ser87, Gly91, penA: ins345Asp, ponA: Pro421, porB: wild type, rpsJ: Met57, tetM plasmid: no)",0.12,0.12,1,16,8
"Neisseria gonorrhoeae isolate 500 (blaTEM plasmid: no, gyrA: Phe91, Asn95, mtrR promoter: -35delA, parC: Arg87, Glu91, penA: ins345Asp, ponA: Pro421, porB: Asn120, Asp121, rpsJ: Met57, tetM plasmid: no)",2,1,2,16,30
"Neisseria gonorrhoeae isolate 353 (blaTEM plasmid: yes, gyrA: Phe91, Asn95, mtrR promoter: wild type, parC: wild type, penA: wild type, ponA: wild type, porB: wild type, rpsJ: Met57, tetM plasmid: yes)",≥ 32,0.03,8,32,≤ 2
"Neisseria gonorrhoeae isolate 231 (blaTEM plasmid: no, gyrA: Phe91, Asn95, mtrR promoter: -35delA, parC: Arg87, Glu91, penA: ins345Asp, ponA: Pro421, porB: wild type, rpsJ: Met57, tetM plasmid: no)",0.5,0.5,1,16,8
"Neisseria gonorrhoeae isolate 360 (blaTEM plasmid: no, gyrA: wild type, mtrR promoter: wild type, parC: wild type, penA: ins345Asp, ponA: wild type, porB: Lys120, Asn121, rpsJ: Met57, tetM plasmid: yes)",0.06,1,4,8,≤ 2
"Neisseria gonorrhoeae isolate 210 (blaTEM plasmid: no, gyrA: Phe91, Gly95, mtrR promoter: -35delA, parC: Arg87, Glu91, penA: ins345Asp, ponA: Pro421, porB: wild type, rpsJ: Met57, tetM plasmid: no)",0.5,0.25,2,16,8
"Neisseria gonorrhoeae isolate 319 (blaTEM plasmid: no, gyrA: wild type, mtrR promoter: wild type, parC: wild type, penA: wild type, ponA: wild type, porB: wild type, rpsJ: wild type, tetM plasmid: no)",0.5,0.5,2,16,8
"Neisseria gonorrhoeae isolate 420 (blaTEM plasmid: no, gyrA: wild type, mtrR promoter: wild type, parC: wild type, penA: ins345Asp, ponA: wild type, porB: wild type, rpsJ: wild type, tetM plasmid: no)",0.06,0.06,0.5,16,≤ 2
"Neisseria gonorrhoeae isolate 294 (blaTEM plasmid: no, gyrA: wild type, mtrR promoter: wild type, parC: wild type, penA: ins345Asp, ponA: Pro421, porB: wild type, rpsJ: Met57, tetM plasmid: no)",0.25,0.12,0.5,8,≤ 2
